The campaign covered roughly 310,000 compounds. About 14,000 (4.5%) showed an effect of 50% or more. Effects have a minus sign here. Some of the results follow.

This is an account of results in paper PMC4336329 (PLoS ONE, 2015).
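Note: peak tail current of the secondary pulse compared with the same well before compound.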

The target of the assay is human ether-à-go-go-related gene (hERG) potassium channel (human, UniProt Q12809). Put plainly: primary screen, population patch clamp on CHO cells stably expressing hERG.
Chain of human ether-à-go-go-related gene (hERG) potassium channel (Q12809 whole entry, looked up): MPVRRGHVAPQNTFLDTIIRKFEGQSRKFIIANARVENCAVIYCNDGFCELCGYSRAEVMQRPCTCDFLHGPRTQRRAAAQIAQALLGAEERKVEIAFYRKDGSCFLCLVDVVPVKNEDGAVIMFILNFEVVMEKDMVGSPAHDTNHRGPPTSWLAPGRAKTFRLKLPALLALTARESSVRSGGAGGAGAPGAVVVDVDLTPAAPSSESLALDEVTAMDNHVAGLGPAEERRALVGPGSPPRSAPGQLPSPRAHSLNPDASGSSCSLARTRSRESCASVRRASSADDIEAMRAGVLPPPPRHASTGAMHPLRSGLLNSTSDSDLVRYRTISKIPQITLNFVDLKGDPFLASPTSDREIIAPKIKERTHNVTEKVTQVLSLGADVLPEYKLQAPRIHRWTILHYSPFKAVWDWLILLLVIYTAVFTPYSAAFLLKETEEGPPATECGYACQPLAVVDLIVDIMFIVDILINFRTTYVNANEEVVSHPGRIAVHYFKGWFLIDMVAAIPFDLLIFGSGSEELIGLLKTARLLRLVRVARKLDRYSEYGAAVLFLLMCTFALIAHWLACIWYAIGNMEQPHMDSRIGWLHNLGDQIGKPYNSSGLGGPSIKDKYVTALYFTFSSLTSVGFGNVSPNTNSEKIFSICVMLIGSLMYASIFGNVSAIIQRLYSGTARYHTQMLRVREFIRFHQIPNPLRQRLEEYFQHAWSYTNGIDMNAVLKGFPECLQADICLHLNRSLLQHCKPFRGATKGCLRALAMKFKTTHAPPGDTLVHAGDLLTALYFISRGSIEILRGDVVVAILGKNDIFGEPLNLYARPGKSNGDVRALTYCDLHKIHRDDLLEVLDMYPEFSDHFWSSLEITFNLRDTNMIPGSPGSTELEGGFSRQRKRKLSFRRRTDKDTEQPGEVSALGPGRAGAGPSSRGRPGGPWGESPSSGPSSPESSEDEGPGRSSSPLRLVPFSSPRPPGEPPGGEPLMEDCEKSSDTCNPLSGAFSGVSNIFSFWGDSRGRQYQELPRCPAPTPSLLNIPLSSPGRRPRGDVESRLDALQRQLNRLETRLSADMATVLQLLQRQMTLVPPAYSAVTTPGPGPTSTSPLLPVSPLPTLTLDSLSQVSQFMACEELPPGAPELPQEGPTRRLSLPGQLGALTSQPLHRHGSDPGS
With `Cc1ccc(CNc2ccc(CNc3ncn[nH]3)cc2)cc1`, the “hERG current change (%, negative = inhibition) at 10uM” value is recorded as 4.9%.
In the case of `COc1ccccc1NC(=O)CCSc1nc(C)cc(C)n1`, the “hERG current change (%, negative = inhibition) at 10uM” value is recorded as 16.4%.
Take `O=C1OC(c2ccccc2)=C/C1=C/N1CCOCC1`: the “hERG current change (%, negative = inhibition) at 10uM” value was 2.28%.
As for `O=C(Nc1ccc2c(c1)OCCO2)c1ccoc1`, the “hERG current change (%, negative = inhibition) at 10uM” value is reported as 7.01%.
On to `CN1CCN(/C=C(\C#N)S(=O)(=O)c2ccc(Cl)cc2)CC1`, for which the “hERG current change (%, negative = inhibition) at 10uM” value is listed as -0.995%.
The same measure for `O=C(CCl)Nc1cccn2ncnc12`: 20.2%.
Regarding `COC(=O)Cn1nc(-c2ccccc2)c2ccccc2c1=O`, the “hERG current change (%, negative = inhibition) at 10uM” value was found to be 5.88%.
Turning to `Cc1c(Nc2ccc(C=O)cc2)c(=O)n(-c2ccccc2)n1C`, the “hERG current change (%, negative = inhibition) at 10uM” value was -2.75%.
Regarding `CC(=O)c1ccc(NC(=O)N2C3CCC2CC(O)(c2cccnc2)C3)cc1` (stereo not drawn), the “hERG current change (%, negative = inhibition) at 10uM” value turned out to be 2.75%.
As to `COc1cc(CN2CCNC(=O)C2CC(=O)NCc2csc(C(C)C)n2)cc(OC)c1` (stereo not drawn), the “hERG current change (%, negative = inhibition) at 10uM” value is recorded as 6.27%.
Next, `Cc1ccc(OC(=O)c2cc(=O)c3ccccc3o2)cc1`: 11.7%; `Nc1ccn(CC(=O)NCCc2ccccn2)c(=O)n1`: 15%; `COc1ccc(OC)c(C(=O)NC(CC(N)=O)c2ccc(NCc3ccccn3)c([N+](=O)[O-])c2)c1` (stereo not drawn): -13%.
With `Cn1c(N2C(=O)CC(Cc3ccccc3)C2=O)nc2ccccc21` (stereo not drawn), the “hERG current change (%, negative = inhibition) at 10uM” value is reported as -17.6%.
As to `CN(C(=O)CSc1nnc(CN2CCCC2)n1Cc1ccccc1)c1ccccc1`, the “hERG current change (%, negative = inhibition) at 10uM” value is listed as -17.1%.
Next, `CNC(=O)c1ccc(NC(=O)CC2SC(N3CCCC3)=NC2=O)cc1` (stereo not drawn): -4.89%; `Cc1ccc(C)c(NC(=O)CCC(=O)NNC(=S)Nc2ccccc2)c1`: 13.9%; `COc1ccccc1NC(=O)CCn1c(=S)oc2ccccc21`: 14.3%.
Take `O=C(O)c1ccccc1-c1nc2ccccc2c(=O)n1O`: the “hERG current change (%, negative = inhibition) at 10uM” value is 14.9%.
Consider `COc1ccc(/C=N/NC(=O)c2cc3c(ccc4ccccc43)o2)cc1OC`, for which the “hERG current change (%, negative = inhibition) at 10uM” value was 2.27%.
`COCCCNS(=O)(=O)c1ccc(S(=O)(=O)N2CCCC2)cc1`: the “hERG current change (%, negative = inhibition) at 10uM” value was -1.15%.
With `CC(=O)Nc1ccccc1C(=O)C(=O)Nc1ccc(F)c(Cl)c1`, the “hERG current change (%, negative = inhibition) at 10uM” value is listed as 15.6%.
With `COc1ccc(CNS(=O)(=O)CCNC(=O)c2ccc3c(c2)OCO3)cc1`, the “hERG current change (%, negative = inhibition) at 10uM” value was -25.8%.
The same measure for `Cc1sc2ncnc(SCc3ccc(C(=O)O)cc3)c2c1C`: 4.78%; for `CC(c1ccccc1)N1C(=O)c2ccc(C(=O)NCc3cccnc3)cc2C1=O` (stereo not drawn): -18.4%; for `[Cl-].c1ccc(CNc2cccc[nH+]2)cc1`: 16.6%.
Next, `CCCCOc1ccc(S(=O)(=O)NCc2csc(C)n2)cc1`: -9.63%; `Cc1ccc(NC(=O)c2oc3ccccc3c2C)nc1`: 16%.
In the case of `COCCCNC(=O)c1c(N)n(-c2ccccc2)c2nc3ccccc3nc12`, the “hERG current change (%, negative = inhibition) at 10uM” value came out at 1.67%.
As to `COc1ccccc1N(C)S(=O)(=O)c1ccc(C(=O)N(CC(N)=O)C(C)C)cc1`, the “hERG current change (%, negative = inhibition) at 10uM” value is on record as 7.27%.
Consider `COCCNC(=S)Nc1ccc(Cl)c(Cl)c1`, for which the “hERG current change (%, negative = inhibition) at 10uM” value is -0.16%.
Turning to `Cn1nnnc1SCC(=O)Nc1nc(-c2ccc(F)c(F)c2)cs1`, the “hERG current change (%, negative = inhibition) at 10uM” value is -19.3%.
With `Cc1nc(Nc2ccc(C(=O)O)cc2)sc1-c1ccccc1`, the “hERG current change (%, negative = inhibition) at 10uM” value is reported as -76.5%.
Regarding `FC(F)Sc1ccc(-n2cc(-c3ccccc3)[n+]3c2CCC3)cc1.[Br-]`, the “hERG current change (%, negative = inhibition) at 10uM” value is -77.9%.
On to `Cn1cc(Br)c(NC(=O)/C=C/C(=O)O)n1`, for which the “hERG current change (%, negative = inhibition) at 10uM” value is given as -18.1%.
As for `CCOC(=O)c1c(-c2ccccc2)nc2cc(C)ccn12`, the “hERG current change (%, negative = inhibition) at 10uM” value is -10.5%.
Turning to `COc1ccc(N2CCN(c3nc(Nc4ccc(C)c(F)c4)nc(N4CCCC4)n3)CC2)cc1`, the “hERG current change (%, negative = inhibition) at 10uM” value was determined as 8.35%.
As for `COc1ccc(-c2cc(C(=O)NCc3cn(C)nc3C)c3ccccc3n2)cc1OC`, the “hERG current change (%, negative = inhibition) at 10uM” value is reported as 2.61%.
As to `Cc1ccc(/C=C/C(=O)O)cc1S(=O)(=O)Nc1ccc2c(c1)OCO2`, the “hERG current change (%, negative = inhibition) at 10uM” value stood at 19.7%.
Turning to `Clc1cccc2sc(N3CCOCC3)nc12`, the “hERG current change (%, negative = inhibition) at 10uM” value is listed as -0.66%.
As for `CCOC(=O)CSC1=NC(=O)/C(=C\c2ccc(Cl)cc2)S1`, the “hERG current change (%, negative = inhibition) at 10uM” value amounted to 13.5%.
In the case of `Cc1ccccc1S(=O)c1ccccc1C(=O)O` (stereo not drawn), the “hERG current change (%, negative = inhibition) at 10uM” value is 6.01%.
`Cc1ccc(-c2nnn(CC(=O)N(CC(=O)NC3CCCC3)c3cnc4ccccc4c3)n2)o1`: the “hERG current change (%, negative = inhibition) at 10uM” value is on record as -12.4%.
Next, `S=C(NCc1ccc2c(c1)OCO2)NC1CC1`: 15.9%.
Take `CC(=O)CCC(=O)N1CCCC(CNC(=O)c2ccc(-c3ccccc3)cc2)C1` (stereo not drawn): the “hERG current change (%, negative = inhibition) at 10uM” value is recorded as -13.8%.
Consider `CC(Oc1ccc2c(-c3ccccc3)cc(=O)oc2c1)C(=O)NCCCN1CCOCC1` (stereo not drawn), for which the “hERG current change (%, negative = inhibition) at 10uM” value is reported as -5.18%.
Consider `Cc1sc2nc(CSCC(=O)Nc3c(Cl)cccc3Cl)[nH]c(=O)c2c1C`, for which the “hERG current change (%, negative = inhibition) at 10uM” value is 12.7%.
On to `O=C(CCN1C(=O)C2CCCCC2C1=O)N1CCN(S(=O)(=O)c2c(F)cccc2F)CC1` (stereo not drawn), for which the “hERG current change (%, negative = inhibition) at 10uM” value is recorded as -18.6%.
For the compound `C=CCn1c(SCC(=O)Nc2cc(C)nn2-c2ccccc2)nnc1C1CCCCC1`, the “hERG current change (%, negative = inhibition) at 10uM” value was -14.1%.
Regarding `COC(=O)c1c(NC(=O)CN2C(=O)C(=O)N(CC(C)C)C2=O)sc(C)c1C`, the “hERG current change (%, negative = inhibition) at 10uM” value turned out to be 7.58%.
Turning to `Cc1cc2ccccc2nc1SCC(=O)Nc1nc(-c2ccccc2)cs1`, the “hERG current change (%, negative = inhibition) at 10uM” value is 1.67%.
As for `CC(=O)c1ccc(Nc2cc(C)nc3ccccc23)cc1`, the “hERG current change (%, negative = inhibition) at 10uM” value was -31.3%.
Next, `CCOC(=O)N1CCN(C(=O)CSc2nnc(Cn3c(=O)sc4ccccc43)n2C)CC1`: 7.8%.
For the compound `Fc1c(F)c(C(F)(F)F)c(F)c(F)c1N1CCN(c2ccc3nnc(C(F)(F)F)n3n2)CC1`, the “hERG current change (%, negative = inhibition) at 10uM” value stood at 1.77%.
On to `CCCCc1cc(=O)oc2c(C)c(OCC(=O)N3C[C@H]4C[C@@H](C3)c3cccc(=O)n3C4)ccc12`, for which the “hERG current change (%, negative = inhibition) at 10uM” value is given as -60%.
On to `CCOC(=O)c1c(C)nc(C)c(C(=O)OCC)c1-c1ccco1`, for which the “hERG current change (%, negative = inhibition) at 10uM” value turned out to be 3.58%.
As for `COc1ccc(NC(=O)NNC(=O)C(C)Oc2ccc(C(C)C)cc2)c(OC)c1` (stereo not drawn), the “hERG current change (%, negative = inhibition) at 10uM” value was -1.84%.
